# Assay results: paper PMC12136788
# Some of the results follow.
# B1: chr3:122768741:122768856:-|CDS|ENSG00000169087|unk|FALSE|unique (ssRNA)
# RNA: GGGAGUUCUACAGUCCGACGAUCACAUGUAAUUACGUAGAAGCUACACUCGAAGAGUUUCUGACCUGGAACUGUGACCAGUCUAGUAUUUCUGGACCAUUUAGAGAUUAUGACCAUUCCAAGUUCUGGGCUUAUGCUGACUAUCAACAGAGGAUUGAGCAUCA
# B2: chr1:17067826:17067927:-|3pUTR|ENSG00000117115|msi1|FALSE|unique (ssRNA)
# RNA: GGGAGUUCUACAGUCCGACGAUCCCAGAUUCAUUCCCUGGCUCCAACUGAAAAGACUCAGUUUCAAUCGUUAAAAGUUCCUUUAGGGCCAGAAGAAUAAAUGAAUUAUAAUCCCAUUUUGAAGAACCGAUUUAUAACCAAUGACAACAGAGGAUUGAGCAUCA
# B3: ENSG00000124766:be:win_201|CDS|ENSG00000124766|bound_else_gene|NA|bound_elsewhere_windowed (ssRNA)
# RNA: GGGAGUUCUACAGUCCGACGAUCGGUGUGGUCGCAGAUCGAGCGGCGCAAGAUCAUGGAGCAGUCGCCCGACAUGCACAACGCCGAGAUCUCCAAGCGGCUGGGCAAACGCUGGAAGCUGCUCAAAGACAGCGACAAGAUCCCCAACAGAGGAUUGAGCAUCA
# B4: chr10:62094764:62094865:+|3pUTR|ENSG00000150347|msi1|total|mutant (ssRNA)
# RNA: GGGAGUUCUACAGUCCGACGAUCGAUGAACUCCCCAACCCACUGUGCCCCUCCCGCAACACUACCAGCCGACUUCCGAACCACCGUUAACUAAGUCUUUUACCUCUGAGAUACUUAAUUCUGGGAAAAUUGGUGACAAUUUUCCAACAGAGGAUUGAGCAUCA
# B5: chr17:75064992:75065093:+|3pUTR|ENSG00000180901|msi1|FALSE|unique (ssRNA)
# RNA: GGGAGUUCUACAGUCCGACGAUCAGGCGCUUGUCCCUGUCUGCUUUCCUGGGGCAUGCCUGAUCAGCGUGGGCUGGAGCUCCUAGACCAACCCCAGCUUUCUCACCAGGUUCAGCAAGGAGGCCUGGGGGUCAGACACCAAUGCAACAGAGGAUUGAGCAUCA
# B6: chr3:170392585:170392686:+|3pUTR|ENSG00000136603|msi1|FALSE|bound_elsewhere (ssRNA)
# RNA: GGGAGUUCUACAGUCCGACGAUCUACAUUUUCCAAAUGAAUGAAAAUGUAUGUUUCUUUGUACUUUUUUAAAAAAAUCAGCUUAGUAACAAUACUAUAUGGUUUCAACUAGUAGGUAAUCUGCUUAUAUUUCUAAUGCAAACUCAACAGAGGAUUGAGCAUCA
# B7: ENSG00000070961:be:win_251|CDS|ENSG00000070961|bound_else_gene|NA|bound_elsewhere_windowed (ssRNA)
# RNA: GGGAGUUCUACAGUCCGACGAUCUGUUUGGAAAGAAUUUUAUACCUCCUAAAAAGCCAAAAACCUUUCUUCAAUUAGUAUGGGAAGCAUUACAAGAUGUCACUUUAAUUAUAUUAGAAAUUGCAGCCAUAGUAUCAUUGGGCCCAACAGAGGAUUGAGCAUCA
# B8: chr1:180199467:180199568:+|3pUTR|ENSG00000116260|msi1|total|mutant (ssRNA)
# RNA: GGGAGUUCUACAGUCCGACGAUCCACAGGAACAAUUUCCUCAAGGAGACAGUGGCAUGGAGCUUUGAAAGACGAGCCGGUGUCCGCAAGGAAAUAAGGAGGAACGGGGGUUACGGGCAGAGGAGAAAGCACAUGCCAAGUCAGCAACAGAGGAUUGAGCAUCA
# B9: ENSG00000107863:be:win_1551|CDS|ENSG00000107863|bound_else_gene|NA|bound_elsewhere_windowed (ssRNA)
# RNA: GGGAGUUCUACAGUCCGACGAUCUUCCAAUGGAGAGAAAAAACAGACUUACAAGUGGAGUGGGUUUACUGAACAGGAUGAUAGACGAGGUAUUUGUGAAAGACCUAGGCAGCAAGAAAUUCAUAAAUCUUUUCGAGGUUCCAACAACAGAGGAUUGAGCAUCA
# B10: chr19:57858129:57858983:-|three_prime_utr|ENSG00000204514|control|control|control (ssRNA)
# RNA: GGGAGUUCUACAGUCCGACGAUCCCUGUGACACCCUGAGCUUACGUUUCUUUACAAACGAUGCUUCUCUGACACUCUUUCUGUAGAAUUUCUCUCCAAUAUGCUGCUUCUGGUGCUGAUGAAGGUAUGCAGUGUCAUCCAAGUCAACAGAGGAUUGAGCAUCA
# B11: chr8:73046310:73046411:+|3pUTR|ENSG00000147601|msi1|FALSE|unique (ssRNA)
# RNA: GGGAGUUCUACAGUCCGACGAUCUUGUAUUCUUUAAGAACCUUAUUUUGAUAAAAUGUAAAUUUGUUGAACCCUGCCACAUUUAGUAUCCCCACCCCCAAAUCCUGUUCCAAUGAAAAAAUUAAAACCUGAUACGAAAAAAAACAACAGAGGAUUGAGCAUCA
# B12: chr16:67175568:67175669:+|3pUTR|ENSG00000140939|msi1|total|mutant (ssRNA)
# RNA: GGGAGUUCUACAGUCCGACGAUCUCCGAGCUCACAGCCUUGGGAAGUGAGACCCGAAGAGGGGAGCAGAAAGGGACCUUGAGCCGACAAAGGCCACACACAUCAUUGUCAUUACUGUUUUAAUUGUCUGGCUUCUCUCUGGACCAACAGAGGAUUGAGCAUCA
# B13: ENSG00000070961:be:win_6251|3pUTR|ENSG00000070961|bound_else_gene|NA|bound_elsewhere_windowed (ssRNA)
# RNA: GGGAGUUCUACAGUCCGACGAUCCAUCAUUGCCUUUUUUGUGGUUGUAAAUAGACUUACUUGCACUUUGAAGAUGAGUUACUCCUUGUCAUCUUACAAAUAUGUGAUAUGGUAAUUUUCAUAACAGAUGUCAGUUUUGAACCACAACAGAGGAUUGAGCAUCA
# B14: chr2:151248206:151248307:-|3pUTR|ENSG00000184898|msi1|FALSE|unique (ssRNA)
# RNA: GGGAGUUCUACAGUCCGACGAUCUUUUUUUAAAGCAAAGAUUAAAUUCCCAUGUAAAACCUUCCUCCCUAUACAAAAAAGAAUAGCAGCAUUUUUAUCUUCAAUGACAAAGAAUUGAGUCCAAGAAAAUACUGUAUAAACCUUCAACAGAGGAUUGAGCAUCA
# B15: chr8:25429562:25429664:-|3pUTR|ENSG00000104756|unk|total|mutant (ssRNA)
# RNA: GGGAGUUCUACAGUCCGACGAUCAGAAAAGCACUCAUUUAACCGAUGCCGGGAAACCCGAUAUUGCUGCCUUUUGAAUGGGGCCGGGGGGUUUACCUGGUUUUAUGACCAGGCACCGUAUCUAUUAUAUUUGCUUUUAAACCGCAACAGAGGAUUGAGCAUCA
# B16: chr4:48851844:48851957:+|CDS|ENSG00000109180|unk|total|mutant (ssRNA)
# RNA: GGGAGUUCUACAGUCCGACGAUCAUAUGACUCAAGUGUGAGUGGUCAAUCAUCUUUUGUGACAUCCCCAGCAGCAGACAACACCGAAAUGCUUCCUCAUUAUGAGCCAAUUCCAUUCAGUUCUUCUAUGAAUGAAUCUGCUCCCAACAGAGGAUUGAGCAUCA
# B17: chr10:127452233:127452334:+|3pUTR|ENSG00000150760|msi1|FALSE|unique (ssRNA)
# RNA: GGGAGUUCUACAGUCCGACGAUCGUAUAUAUGAUGGUUCUUAGAACUUGUUUUAAUUUUUGUGGUCCUUCCGUUUAUUAUAAUAGGCGUCCACCAAUGAUUAUCCAUAUGUGUUCUUAAUUUUUAACUGCUGGAAGUGUUAAACAACAGAGGAUUGAGCAUCA
# B18: chrX:74588119:74588220:-|3pUTR|ENSG00000131263|msi1|FALSE|bound_elsewhere (ssRNA)
# RNA: GGGAGUUCUACAGUCCGACGAUCUCCGAAAAUGCUGGGAUUACAGGCGUGAGCCACCAUGUCCAGCCAAAGUUGAGGUUUAUUAGUACUAUUAGAAACAAAAUUGAGCAAGUUAAGUUAAAAGUUUGCUGACUUUGUAUCAACCAACAGAGGAUUGAGCAUCA
# B19: chr17:44352837:44352938:+|3pUTR|ENSG00000030582|unk|total|mutant (ssRNA)
# RNA: GGGAGUUCUACAGUCCGACGAUCCUGAAGACUCUGCAGCCCUCGGGACCCCACUCGGAGGGUGCCCUCUGCUCAGGCCUCCCCCGCACCUCCCCCUAACCAAAUUCUCCCUGGACCCCAUUCUGAGCUCCCCAUCACCAUGGGCAACAGAGGAUUGAGCAUCA
# B20: chr13:20975083:20975184:-|CDS|ENSG00000150457|msi1|FALSE|unique (ssRNA)
# RNA: GGGAGUUCUACAGUCCGACGAUCGCCAGCCCCCUACGUUCCCACCAUCAGCCACCCCAUGGACACCUCGAAUUUCGACCCCGUAGAUGAAGAAAGCCCUUGGAACGAUGCCAGCGAAGGUAGCACCAAGGCCUGGGACACACUCAACAGAGGAUUGAGCAUCA
# B21: chr15:91915990:91916091:+|CDS|ENSG00000176463|msi1|total|mutant (ssRNA)
# RNA: GGGAGUUCUACAGUCCGACGAUCGUCCUGACCACCCUGGAGCGCCGGUUCAACCUGCAGAGCGCUGACGUGGGUGUGAUCGCCCGCAGCUUCGAGAUCGGGAACCUGGCGCUCAUCCUCUUCGUGAGCUACUUCGGGGCACGCCAACAGAGGAUUGAGCAUCA
# B22: chr16:16142165:16142266:+|3pUTR|ENSG00000103222|msi1|total|mutant (ssRNA)
# RNA: GGGAGUUCUACAGUCCGACGAUCAUUGAUGUGGGGUAAAUAUUAAGGAGAUGGCCUCAUGGGAAUUUGACCUUGACCCGAAACCGAGACUGAGAGUGAGCAACCAGCUGGAAGGUACUAUGCCAGUCCCCGCAGAAAAAUGUGCAACAGAGGAUUGAGCAUCA
# Target: MSI1 full-length (mouse, UniProt Q61474 1-362)
# UniProt Q61474, sequence (Q61474 whole entry): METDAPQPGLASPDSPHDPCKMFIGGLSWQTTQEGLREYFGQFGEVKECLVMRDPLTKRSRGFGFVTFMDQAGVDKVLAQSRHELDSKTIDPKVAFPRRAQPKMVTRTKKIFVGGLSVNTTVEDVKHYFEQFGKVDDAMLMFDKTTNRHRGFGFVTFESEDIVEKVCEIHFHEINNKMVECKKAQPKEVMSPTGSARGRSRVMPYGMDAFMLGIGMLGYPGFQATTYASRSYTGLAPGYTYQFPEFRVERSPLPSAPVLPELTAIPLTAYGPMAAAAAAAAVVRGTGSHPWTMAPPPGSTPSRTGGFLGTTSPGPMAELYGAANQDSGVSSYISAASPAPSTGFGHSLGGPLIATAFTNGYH
# Experiment: nsRBNS (natural sequence RNA bind-n-seq); RBNS binding buffer (assumed for nsRBNS): 25 mM Tris pH 7.5, 150 mM KCl, 3 mM MgCl2, 0.01% Triton X-100, 500 ug/ml BSA, 20 U/ml SUPERase-In, 4 C; UNK is unkempt and MSI1 is Musashi-1; names of the RNAs are library labels; protein concentration not given here; high values mean tight binding
row,Binder,binding signal [enrichment R]
1,B1,0.941
2,B2,0.642
3,B3,0.355
4,B4,1
5,B5,0.592
6,B6,2.89
7,B7,17.2
8,B8,0.462
9,B9,0.785
10,B10,0.376
11,B11,6.84
12,B12,0.48
13,B13,0.405
14,B14,0.494
15,B15,0.472
16,B16,0.277
17,B17,4.74
18,B18,3.76
19,B19,0.425
20,B20,1.25
21,B21,0.481
22,B22,0.411
